From PubChem BioAssay AID485294 (National Center for Advancing Translational Sciences (NCATS), 2010)
Among all 370,000 compounds or so, about 150 (0.041%) were called active. Inconclusive means that the source gave no clear call. Such entries were picked first, then a sample of the others. Calls follow the shape of the dose curve; as a rule, active = well fitted inhibition curve with a large enough effect; inconclusive = small, poorly fitted or top-dose-only effect; inactive = flat fitted curve, though single readings scatter. No potency is given beside an inconclusive call; the fits are too rough.

Each molecule was assayed against Beta-lactamase (Escherichia coli (strain K12)) (UniProt P00811) (assay: qHTS Inhibitors of AmpC Beta-Lactamase (assay with detergent)). Conditions: AmpC hydrolysis of nitrocefin, absorbance 480 nm, 0.01% Triton; series mostly up to 114 µM.
Procedure, shortened: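 AmpC (5.3 nM in the dispensed reagent) in 20 mM phosphate pH 7.0 with 0.01% (detergent screen) or 0.0001% Triton X-100 was preincubated with compounds for 15 min at room temperature. Nitrocefin was then added from an 800 uM solution, and hydrolysis was followed at 480 nm.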
Also: nearly all actives have a fitted effect of over 25% in size.
Potency is read from the fitted curve at half-maximal effect; tags tell the direction and shape of the fitted curve.

Chain of UniProt P00811 (P00811 whole entry, looked up): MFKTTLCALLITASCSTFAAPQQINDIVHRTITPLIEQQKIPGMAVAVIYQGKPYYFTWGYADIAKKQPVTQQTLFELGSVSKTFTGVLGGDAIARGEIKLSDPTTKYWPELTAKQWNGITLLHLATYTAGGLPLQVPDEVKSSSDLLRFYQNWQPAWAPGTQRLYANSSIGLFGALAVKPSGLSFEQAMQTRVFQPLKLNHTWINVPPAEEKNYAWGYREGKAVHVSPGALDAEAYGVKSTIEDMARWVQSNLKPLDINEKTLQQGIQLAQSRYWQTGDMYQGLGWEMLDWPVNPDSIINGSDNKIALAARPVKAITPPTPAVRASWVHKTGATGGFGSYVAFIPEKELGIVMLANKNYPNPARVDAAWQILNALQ

Structure (SMILES) | Potency
OC[C@H]1O[C@H](OC[C@H]2OC(O)[C@H](O)[C@@H](O)[C@@H]2O)[C@H](O)[C@@H](O)[C@@H]1O (some centres not stated) | inconclusive [inhibitor, full curve]
Cc1cnc(C(=O)OC(C(=O)c2c[nH]c3ccccc23)c2ccccc2)cn1 (configuration not stated) | inconclusive [inhibitor, full curve, poor fit]
N#Cc1cc2cc3ccccc3nc2n2c(=O)c3ccccc3nc12 | inconclusive [inhibitor, partial curve, poor fit]
CCC(Sc1nc2c(c(=O)n1CC)SC(C)C2)C(=O)OC (configuration not stated) | inconclusive [inhibitor, full curve, poor fit]
CCc1ccc(NC(=O)CSc2nc3c([nH]c4ccccc43)c(=O)n2-c2ccc(C)cc2)cc1 | inactive
Cc1ccc(C(=O)CCC(=O)Nc2ccccc2C)c(C)c1 | inactive
Oc1c(N=NC(=S)Nc2ccccc2F)c2ccccc2n1Cc1ccc(Cl)cc1 | inactive
O=C(Cn1cnc2c(nnn2-c2ccccc2)c1=O)NCc1ccco1 | inconclusive [inhibitor, partial curve, poor fit]
O=C(NCc1ccccc1)c1ccc2c(c1)N(Cc1ccccc1F)C(=O)c1ccccc1S2=O (configuration not stated) | inactive
CCN1CCN(c2nc(C)nc3c2sc(=S)n3C)CC1 | inconclusive [inhibitor, full curve, poor fit]
N#CC1=C(N)Oc2cc(O)ccc2C1C1CCCCC1 (configuration not stated) | inconclusive [inhibitor, single point]
Cc1[nH]c2ccc(F)cc2c1CCNC(=O)C1CCCCC1C(=O)OCC(F)(F)F (configuration not stated) | inconclusive [inhibitor, full curve, poor fit]
COc1ccccc1N1CCN(C(=O)c2cnn3cccnc23)CC1 | inconclusive [inhibitor, single point]
Cc1ncc(N=Nc2ccccc2Cl)c(-c2ccccc2)n1 | inactive
CCOC(=O)c1cc2c(=O)n3ccccc3nc2n(Cc2ccco2)c1=NC(=O)c1ccc(C(C)(C)C)cc1 | inactive
Nc1cc(Cl)ccc1N1CCOCC1 | inconclusive [inhibitor, full curve, poor fit]
O=C(NN=C1CCCCCC1)c1cc(-c2ccccc2)nc2ccccc12 | inconclusive [inhibitor, full curve]
CCn1c(Cc2ccc(OC)cc2)nnc1SCC(=O)NC1CCCCC1 | inconclusive [inhibitor, full curve, poor fit]
O=C(C[n+]1cccc(Br)c1)c1ccc(-c2ccccc2)cc1 | inactive
Cc1c(Cl)cccc1NC(=O)c1oc2ccc(S(=O)(=O)N3CCCCCC3)cc2c1C | inactive
O=[N+]([O-])c1cc(C(F)(F)F)ccc1NN=C1CCCC1 | inconclusive [inhibitor, single point]
Cc1ccc2c(c1)N(CC(=O)Nc1ccccc1C(F)(F)F)C(=O)c1cccnc1O2 | inconclusive [inhibitor, full curve, poor fit]
Cn1c(=S)[nH]c2cccnc21 | inconclusive [inhibitor, full curve, poor fit]

Structure (SMILES) | Potency
COC(=O)c1ccccc1NC(=O)C(C)n1nc(C)c2c(C)n(-c3ccccc3)nc2c1=O (configuration not stated) | inconclusive [inhibitor, partial curve]
CC(C)N(CC#CCC(O)(c1ccccc1)c1ccccc1)CCO | inactive
Cc1cc(C(=O)NCC2COc3ccccc3O2)c2ccccc2n1 (configuration not stated) | inconclusive [inhibitor, single point]
CCOc1ccc(NC(=O)CSc2nc3c(c(=O)n2C)SC(C)C3)cc1 (configuration not stated) | inconclusive [inhibitor, full curve]
Cc1ccc(S(=O)(=O)N2CCCCC2)cc1NC(=O)CNc1ccc(C(F)(F)F)cc1 | inconclusive [inhibitor, partial curve, poor fit]
Cc1ccc(-c2ccc(=O)n(CC(=O)NCCCN3CCCCC3C)n2)cc1 (configuration not stated) | inconclusive [inhibitor, full curve]
CC(C)c1ccc(N2C(=O)NC(=O)/C(=C/c3cnc(-c4ccccc4)nc3)C2=O)cc1 | inconclusive [inhibitor, single point]
Cc1ccccc1-n1nnnc1SCC(C)C | inconclusive [inhibitor, full curve, poor fit]
CN=c1scc(-c2ccc(F)cc2)n1/N=C/c1ccc(O)c(O)c1 | inactive
COCc1nn2c(N)c(-c3ccccc3)cnc2c1-c1ccccc1 | inconclusive [inhibitor, partial curve, poor fit]
O=C(NC1CCCC1)c1cc2c(=O)n3ccccc3nc2s1 | inconclusive [inhibitor, full curve, poor fit]
O=C(O)c1ccc2c3c(cccc13)C(=O)N(OS(=O)(=O)c1ccccc1)C2=O | inconclusive [inhibitor, partial curve]
CC(C)c1ccc(C2C(C(=O)c3ccco3)=C(O)C(=O)N2CC2CCCO2)cc1 (configuration not stated) | inconclusive [inhibitor, single point]
CC(C)CCNC(=O)CN(Cc1ccc2c(c1)OCO2)C(=O)CCC(=O)Nc1ccccn1 | inconclusive [inhibitor, single point]
CCCOC(=O)c1ccc(OCC(O)Cn2c(C)nc3ccccc32)cc1 (configuration not stated) | inconclusive [inhibitor, partial curve, poor fit]
Cc1cc(C(=O)NC2CC(C)(C)Cc3c2cnn3-c2ccccc2C)c(C)o1 (configuration not stated) | inconclusive [inhibitor, full curve, poor fit]
O=C(Nc1ccc2c(c1)Cc1ccccc1-2)c1cccnc1 | inactive
CCOc1cc(C(=O)NN2CCOCC2)cc(OCC)c1OCC | inconclusive [inhibitor, full curve, poor fit]
COc1ccc2c(C)c(CCC(=O)NCc3cccc(Cl)c3)c(=O)oc2c1 | inactive
Cc1cccc(CSCCNC(=O)C2CCN(S(=O)(=O)Cc3ccccc3)CC2)c1 | inactive
CCCc1[nH]nc2c1C(CCc1ccccc1)C(C#N)=C(N)O2 (configuration not stated) | inconclusive [inhibitor, partial curve]
C/C(=C\c1ccccc1)C(=O)Nc1nccs1 | inactive
CCNC(=S)Nc1ccc(C)c(S(=O)(=O)Nc2ccccc2OC)c1 | inactive

Structure (SMILES) | Potency
CCN1CCN(Cc2ccc(NC(=O)Nc3ccccc3Cl)cc2)CC1 | inconclusive [inhibitor, full curve, poor fit]
Cc1ccc(-c2csc(-c3c(N)c(C(=O)c4ccc5c(c4)OCO5)n4ccccc34)n2)cc1C | inactive
Cc1ccc(S(=O)(=O)NCCS(=O)(=O)N2CCN(c3ccc(F)cc3)CC2)cc1 | inconclusive [inhibitor, single point]
Cc1ccc(CNC(=O)c2ccc(Cl)c(S(N)(=O)=O)c2)n1C | inactive
COc1ccc(-c2nc(Cn3c(SCc4ccc(C)cc4)nc4ccncc43)c(C)o2)cc1OC | inconclusive [inhibitor, full curve, poor fit]
Cc1cc(C(=O)Nc2cccc(O)c2)c(C)o1 | inactive
Cc1ccc(NC(=O)c2ccc(NCCN)c([N+](=O)[O-])c2)cc1 | inconclusive [inhibitor, full curve, poor fit]
O=C(CNCc1ccccc1)NCCCN1CCCC1=O | inconclusive [inhibitor, full curve, poor fit]
CCCn1c(SCc2nc3sc(C)c(C)c3c(=O)[nH]2)nc2ccccc2c1=O | inconclusive [inhibitor, partial curve]
COc1ccc(/C(N)=N/OC(=O)CCCc2ccccc2)cc1OC | inconclusive [inhibitor, full curve, poor fit]
Cc1nc2cc(NC(=O)NCCC3=CCCCC3)ccc2o1 | inactive
CC(C(=O)Nc1ccccc1C(F)(F)F)N1CCN(C)CC1 (configuration not stated) | inconclusive [inhibitor, full curve, poor fit]
Cn1cnc2c1c(=O)n(CC(O)CO)c(=O)n2C (configuration not stated) | inconclusive [inhibitor, partial curve, poor fit]
COc1ccc(N(C(=O)c2ccco2)C(C(=O)NC2CCCCC2)c2cccs2)cc1OC (configuration not stated) | inconclusive [inhibitor, partial curve]
COc1ccc(NC(=O)c2c(NCc3ccc(C)o3)sc3c2CCCCC3)c(OC)c1 | inactive
CN1CCN(C(=O)c2ccc3c(Cl)c4c(nc3c2)CCCC4)CC1 | inconclusive [inhibitor, full curve, poor fit]
COc1ccccc1NC(=O)CSc1nc2n[nH]c(C)c2c(=N)n1-c1ccccc1Cl | inconclusive [inhibitor, full curve]
Cc1ccc(S(=O)(=O)N(C)C)cc1NC(=O)c1ccncc1 | inconclusive [inhibitor, single point]
Cc1cccc(S(=O)(=O)c2c(C)cc(C)nc2Cl)c1 | inactive
Cc1ccc2cc3c(NC(=O)c4ccco4)nn(CC(C)C)c3nc2c1 | inconclusive [inhibitor, partial curve, poor fit]
O=C(NCCc1ccccc1)c1ccc([N+](=O)[O-])cc1 | inconclusive [inhibitor, full curve]
